Source: patent US20250289788A1, “HALOALKYL SULFONANILIDE COMPOUND AND HERBICIDE CONTAINING THE SAME” (SDS BIOTECH K.K., priority 2022, published 2025)
Some of these results come from one statement about several compounds together. At least one compound was matched to its structure with a doubt left.

What was measured:
Test in all cases: Test Example 1: herbicidal effect test using paddy field flooding treatment
Type in all cases: in vivo
[1] = test system: Schoenoplectiella juncoides (SJ); details: dose 63 g a.i./ha, water surface application, 21 days after treatment
[2] = test system: Echinochloa crus-galli var. oryzicola (EC); details: water surface application, 21 days after treatment
[3] = test system: Ammannia multiflora (AM); details: water surface application, 21 days after treatment
[4] = test system: Monochoria vaginalis (MV); details: water surface application, 21 days after treatment

Measured: herbicidal efficacy (degree (%) of suppression of growth of terrestrial part)

O=C1c2c(F)ccc(F)c2CCN1Cc1ccccc1N(C(=O)OC1CCCOC1)S(=O)(=O)C(F)(F)F (stereo not drawn) [Compound 3-205]
≥ 80%: [1] | [2]; dose 250 g a.i./ha | [3]; dose 16 g a.i./ha

CC(C)(C)[Si](C)(C)OCCC(=O)N(c1ccccc1CN1CCc2c(F)ccc(F)c2C1=O)S(=O)(=O)C(F)(F)F [Compound 3-133]
≥ 80%: [2]; dose 250 g a.i./ha | [4]; dose 63 g a.i./ha | [3]; dose 16 g a.i./ha

O=C1c2c(F)ccc(F)c2CCN1Cc1ccccc1N(C(=O)ON1C(=O)CCC1=O)S(=O)(=O)C(F)(F)F [Compound 3-211]
≥ 80%: [2]; dose 500 g a.i./ha | [4]; dose 16 g a.i./ha | [3]; dose 16 g a.i./ha

O=C1c2c(F)ccc(F)c2CCN1Cc1ccccc1N(C(=O)OC1CCCCC1)S(=O)(=O)C(F)(F)F [Compound 3-187]
≥ 80%: [2]; dose 500 g a.i./ha | [4]; dose 125 g a.i./ha | [3]; dose 125 g a.i./ha

CCOC(=O)N(c1ccccc1CN1CCc2cccc(F)c2C1=O)S(=O)(=O)C(F)(F)F [Compound 3-140]
≥ 80%: [2]; dose 250 g a.i./ha | [4]; dose 125 g a.i./ha | [3]; dose 16 g a.i./ha

O=C1c2c(F)ccc(F)c2CCN1Cc1ccccc1N(C(=O)OC1CCCC1)S(=O)(=O)C(F)(F)F [Compound 3-186]
≥ 80%: [2]; dose 125 g a.i./ha | [4]; dose 125 g a.i./ha | [3]; dose 16 g a.i./ha

O=C1c2c(F)ccc(F)c2CCN1Cc1ccccc1N(C(=O)OCCCl)S(=O)(=O)C(F)(F)F [Compound 3-180]
≥ 80%: [2]; dose 500 g a.i./ha | [4]; dose 63 g a.i./ha | [3]; dose 16 g a.i./ha

O=C1OCC(COC(=O)N(c2ccccc2CN2CCc3c(F)ccc(F)c3C2=O)S(=O)(=O)C(F)(F)F)O1 (stereo not drawn) [Compound 3-224]
≥ 80%: [2]; dose 500 g a.i./ha | [4]; dose 500 g a.i./ha | [3]; dose 31 g a.i./ha

Cc1cc2c(cc1F)CCN(Cc1ccccc1NS(=O)(=O)C(F)(F)F)C2=O [Compound 3-80]
≥ 80%: [2]; dose 500 g a.i./ha | [4]; dose 500 g a.i./ha | [3]; dose 63 g a.i./ha

CCSC(=O)N(c1ccccc1CN1CCc2c(F)ccc(F)c2C1=O)S(=O)(=O)C(F)(F)F [Compound 3-240]
≥ 80%: [2]; dose 500 g a.i./ha | [4]; dose 63 g a.i./ha | [3]; dose 16 g a.i./ha

CCOC(=O)N(c1ccccc1CN1CCc2c(ccc(F)c2F)C1=O)S(=O)(=O)C(F)(F)F [Compound 3-160]
≥ 80%: [2]; dose 500 g a.i./ha | [4]; dose 500 g a.i./ha | [3]; dose 125 g a.i./ha

O=C1c2c(F)ccc(F)c2CCN1Cc1ccccc1N(C(=O)C1CCOCC1)S(=O)(=O)C(F)(F)F [Compound 3-127]
≥ 80%: [2]; dose 500 g a.i./ha | [4]; dose 250 g a.i./ha | [3]; dose 16 g a.i./ha

O=C1c2c(F)ccc(F)c2CCN1Cc1ccccc1N(C(=O)OCCl)S(=O)(=O)C(F)(F)F [Compound 3-171]
≥ 80%: [2]; dose 500 g a.i./ha | [4]; dose 125 g a.i./ha | [3]; dose 16 g a.i./ha

CCCC(=O)N(c1ccccc1CN1CCc2c(F)ccc(F)c2C1=O)S(=O)(=O)C(F)(F)F [Compound 3-99]
≥ 80%: [2]; dose 125 g a.i./ha | [4]; dose 63 g a.i./ha | [3]; dose 16 g a.i./ha

O=C1c2c(F)cccc2CN1Cc1ccccc1NS(=O)(=O)C(F)(F)F [Compound 2-2]
≥ 80%: [2]; dose 500 g a.i./ha | [4]; dose 250 g a.i./ha | [3]; dose 125 g a.i./ha

C=CCOC(=O)N(c1ccccc1CN1CCc2c(F)ccc(F)c2C1=O)S(=O)(=O)C(F)(F)F [Compound 3-188]
≥ 80%: [2]; dose 31 g a.i./ha | [4]; dose 63 g a.i./ha | [3]; dose 16 g a.i./ha

Cc1noc2c1CCN(Cc1ccccc1NS(=O)(=O)C(F)(F)F)C2=O [Compound 6-7]
≥ 80%: [2]; dose 500 g a.i./ha | [4]; dose 63 g a.i./ha | [3]; dose 31 g a.i./ha

O=C1c2c(F)ccc(F)c2CCN1Cc1ccccc1N(C(=O)C1CCCO1)S(=O)(=O)C(F)(F)F (stereo not drawn) [Compound 3-125]
≥ 80%: [2]; dose 500 g a.i./ha | [4]; dose 63 g a.i./ha | [3]; dose 31 g a.i./ha

O=C1c2c(F)ccc(F)c2CCN1Cc1ccccc1N(C(=O)OCC(Cl)(Cl)Cl)S(=O)(=O)C(F)(F)F [Compound 3-172]
≥ 80%: [2]; dose 500 g a.i./ha | [4]; dose 500 g a.i./ha | [3]; dose 16 g a.i./ha

CC1(COC(=O)N(c2ccccc2CN2CCc3c(F)ccc(F)c3C2=O)S(=O)(=O)C(F)(F)F)CO1 (stereo not drawn) [Compound 3-215]
≥ 80%: [2]; dose 250 g a.i./ha | [4]; dose 63 g a.i./ha | [3]; dose 16 g a.i./ha

CC(=O)OCC(=O)N(c1ccccc1CN1CCc2c(F)ccc(F)c2C1=O)S(=O)(=O)C(F)(F)F [Compound 3-134]
≥ 80%: [2]; dose 500 g a.i./ha | [4]; dose 250 g a.i./ha | [3]; dose 16 g a.i./ha

O=C1c2c(F)ccc(F)c2CCN1Cc1ccccc1N(C(=O)OC1CCSC1)S(=O)(=O)C(F)(F)F (stereo not drawn) [Compound 3-203]
≥ 80%: [2]; dose 500 g a.i./ha | [4]; dose 63 g a.i./ha | [3]; dose 16 g a.i./ha

CC(=O)COC(=O)N(c1ccccc1CN1CCc2c(F)ccc(F)c2C1=O)S(=O)(=O)C(F)(F)F [Compound 3-234]
≥ 80%: [2]; dose 250 g a.i./ha | [4]; dose 31 g a.i./ha | [3]; dose 16 g a.i./ha

CCOC(=O)N(c1ccccc1CN1CCc2c(C)ccc(F)c2C1=O)S(=O)(=O)C(F)(F)F [Compound 3-151, N-[2-(N-ethoxycarbonyl-N-trifluoromethanesulfonyl)aminobenzyl]-8-fluoro-5-methyl-3,4-dihydroisoquinolin-1(2H)-one]
≥ 80%: [2]; dose 500 g a.i./ha | [4]; dose 250 g a.i./ha | [3]; dose 63 g a.i./ha
